Results: patent publication US20040265931

System: ubiquitinated Flag-p53

Flag-HAUSP (no sequence given)
in vitro deubiquitination of purified ubiquitinated p53: p53 was efficiently deubiquitinated upon incubation with purified recombinant HAUSP
